# Test results taken from the supplement of paper PMC7826260.
# The other results are listed elsewhere or left out. One pool of 16,384 single-stranded DNAs met each Rep nickase domain in vitro at 3 µM enzyme and 37 °C for 1 h; the strands have 90 letters, of which the middle is given. Values are log2 of uncut reads against the no-enzyme pool; more negative means more cut, near 0 not cut, and no call is made. Shares of all reads are compared; values above 0 arise when much of the pool is cut.
# Test system: T1, Rep nickase domain of tomato golden mosaic virus
# T1 sequence (residues 1-124 of Rep, tag left off): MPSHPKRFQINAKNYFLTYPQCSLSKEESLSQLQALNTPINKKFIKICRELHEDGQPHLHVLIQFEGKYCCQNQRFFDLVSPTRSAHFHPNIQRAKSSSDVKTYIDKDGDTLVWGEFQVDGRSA
# Experiment: uncleaved DNA left, log2 of reads against the no-enzyme library (log2 ratio); higher = less cleavage (more negative = more Rep cleavage of the k-mer); sequences stand for … in CTCGTCCG…ACCGGAGA
# Method: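 A pool of 90-nt single-stranded DNAs with seven random bases just before the constant AC of the nick site (name = the seven bases) was cut by 3 µM recombinant His6-SUMO-tagged Rep nickase domain (300 nM DNA, 50 mM HEPES pH 8.0, 50 mM NaCl, 1 mM MnCl2, 1 h, 37 °C, three replicates). Uncut DNA was amplified and sequenced.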
row,Sequence,uncleaved DNA left (log2)
1,TTGGCAT,0.023
2,CTGAAGT,0.0196
3,ACGCGTA,0.115
4,CCTACAG,-0.0791
5,GTAGCTG,0.117
6,ACAGGAA,0.0386
7,AGGAACT,0.0717
8,CACGGAG,0.0359
9,TGCGTCG,-0.106
10,ACCTCGC,-0.0663
11,CTTTTAA,0.0608
12,AAATCTG,0.111
13,AATCTTG,0.0478
14,TCCGATT,0.129
15,ACTTAGA,0.0236
16,TTAAACG,-0.03
17,GATGCGA,-0.0327
18,CTGAATG,0.222
19,CGCTGGG,0.0822
20,CAATTAT,-4.01

row,Sequence,uncleaved DNA left (log2)
1,TGCTGTG,-0.0907
2,CGCCCAC,-0.0668
3,GATAGGC,0.0127
4,CAACGAG,0.0353
5,CTGTTCC,-0.173
6,TCATTCT,-0.208
7,GCGTTCA,-0.0601
8,TGTCGTC,0.00944
9,ATGACAA,-0.1
10,GGTAGCA,-0.012
11,TAGACCC,-0.0797
12,AGATCGG,0.196
13,GCGCGAC,-0.0477
14,GCCGTCG,-0.0677
15,CGGTCGT,-0.0265
16,GTGAATT,0.0631
17,CACAAAG,0.115
18,ATCCCAA,-0.0661
19,AGTGTCT,0.092
20,TTGCTTG,-0.124
